The values below come from the RNAGym collection of RNA variant scans (doi:10.1073/pnas.2313332121).

Variants at the background level are over-represented here.

B1: TPR 5TU (parent)
chain: GGAUCUUCUCGAUCUAACAAAAAAGACAAAUCUGCCACAAAGCUUGAGAGCAUCUUCGGAUGCAGAGGCGGCAGCCUUCGGUGGCGCGAUAGCGCCAACGUUCUCAACUAUGACACGCAAAACGCGUGCUCCGUUGAAUGGAGUUUAUCAUG

The variants in this data set derive from B1. Kind of data set: polymerase ribozyme fitness, log enrichment relative to wild type (log ratio); higher = more active; in vitro selection for triplet polymerase activity. The method in brief: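 Libraries of mutants in each subunit of a heterodimeric triplet polymerase ribozyme were generated by PCR and transcribed. In triplicate, each went through one in vitro selection round: annealing with biotinylated primer, partner subunit and triplets; frozen incubation at −7 °C; gel excision of extended constructs; streptavidin-bead capture; RT-PCR. Fitness, taken from Illumina sequencing of input and output libraries, is the logarithm of a genotype's enrichment over wild-type enrichment, averaged across replicates with inverse-variance weights. The logarithm is base 2, and genotypes needed ≥10 input reads and ≥1 read per output to be kept.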
C43A G50C C57A A89C C96U C123U U144G: the “polymerase ribozyme fitness (log ratio)” value was at most -4.2.
On to G42C U45A U78G C79U G80C G84A, for which the “polymerase ribozyme fitness (log ratio)” value is at most -4.2.
On to A41U A60U G80U C93U, for which the “polymerase ribozyme fitness (log ratio)” value was at most -4.2.
The result for A41U G46A U53A C54G C57U G80U A91G U130A U139A reads at most -4.2; that for G42C U56A G86A A91C U111A G143C, at most -4.2.
The result for G42A G74U G81A G84U A91C C99A A115U A138C A142G reads at most -4.2; that for G42U G46C A64G G81U C87G C125U, at most -4.2; that for C43A G94C C95U G133C U135C, at most -4.2.
A41U U44A G50A G70A U78C A107C U111A G128U: the “polymerase ribozyme fitness (log ratio)” value was at most -4.2.
Turning to G42C C57U A73G G84C U101G, the “polymerase ribozyme fitness (log ratio)” value was at most -4.2.
The result for G42C A89G G92A G126U G133A reads at most -4.2; that for G42U G81A C123A A138G G140C G143A, at most -4.2.
Under A41U G84C C103G stands at most -4.2; under G42C U61A U101A A119C, at most -4.2.
The result for G42A G143U reads at most -4.2; that for G42A A52C, -3.82.
In the case of G42C G70C C93G C129A U151G, the “polymerase ribozyme fitness (log ratio)” value is at most -4.2.
The result for G42A U45C C69A C132U reads at most -4.2; that for G42C A73U C85G A113U, at most -4.2.
The result for G42A C85U C93G G133U G143A reads at most -4.2; that for C43A G92A C118A, at most -4.2; that for C43A G48U U78C G83A U90G, at most -4.2.
For the variant A41U G80A, the “polymerase ribozyme fitness (log ratio)” value was -0.78.
Regarding G42A C95U A107C C114U, the “polymerase ribozyme fitness (log ratio)” value is at most -4.2.
The result for G42C G48A C51G G83U U104G G126C reads at most -4.2; that for G42C G46A G74C A113U, at most -4.2.
Turning to G42A G58A G100C, the “polymerase ribozyme fitness (log ratio)” value is at most -4.2.
With G42C A73C C79A G83C G94A C99U C123U G143C, the “polymerase ribozyme fitness (log ratio)” value is at most -4.2.
Consider C43A A52G C69U A91U C96U A106U, for which the “polymerase ribozyme fitness (log ratio)” value was at most -4.2.
Under A41U A52C C93A stands at most -4.2.
On to C43A G62A G83U G88A C103G G133C, for which the “polymerase ribozyme fitness (log ratio)” value was at most -4.2.
The result for A41U C76A reads -1.99.
On to C43A G68C C93U G126U C132G, for which the “polymerase ribozyme fitness (log ratio)” value is at most -4.2.
Regarding G42A U45G C87U U109G, the “polymerase ribozyme fitness (log ratio)” value was at most -4.2.
The result for G42C G88A U134A U146A reads at most -4.2; that for G42C G68C G88C A107G C118U, at most -4.2.
The result for G42C G62A G65U G83C G92A G141A reads at most -4.2; that for C43A A73G G83A A89U U90C G136C G141C, at most -4.2.
Under G42C U61C G62U G83C A119G stands at most -4.2; under G42U G86U C108U A115U C125U U145C, at most -4.2.
Turning to G42U C57A, the “polymerase ribozyme fitness (log ratio)” value is at most -4.2.
Consider A41U C57A G68A C99A A113C U127A G143A, for which the “polymerase ribozyme fitness (log ratio)” value was at most -4.2.
Under G42C A91G G92A U144C stands at most -4.2; under A41U C54G U78C C79G A107U C149A, at most -4.2; under G42C U104G C118G G136A, at most -4.2.
Regarding G42A U53A U61C C85U A106U U134A U144G U145C, the “polymerase ribozyme fitness (log ratio)” value is at most -4.2.
As for G42U C51U G58C A150C, the “polymerase ribozyme fitness (log ratio)” value was at most -4.2.
Take C43A C87A A89G C93U U135G: the “polymerase ribozyme fitness (log ratio)” value was at most -4.2.
In the case of A41G U56G G59A U61G C76A A91C C95G G124A, the “polymerase ribozyme fitness (log ratio)” value is at most -4.2.
As to G42C U61A G74A C87U U134C, the “polymerase ribozyme fitness (log ratio)” value was at most -4.2.
Under G42C C93A A147G stands at most -4.2; under G42A C54G U56A G58A G94C, at most -4.2; under A41U A60G G86U U109G U144G, at most -4.2.
As for G42C C75A C76G G140U, the “polymerase ribozyme fitness (log ratio)” value was at most -4.2.
The result for G42C U44A A52G G70U G83C reads at most -4.2.
Under A41G U53A C75A U82A stands at most -4.2.
Under G42A G50A A66G G71U stands at most -4.2; under A41U G48C G59A C96A, at most -4.2; under G42A C54A C76G C79A A142U, at most -4.2.
Turning to G42C A47C A66G, the “polymerase ribozyme fitness (log ratio)” value was at most -4.2.
Regarding G42U A52C C93U, the “polymerase ribozyme fitness (log ratio)” value is at most -4.2.
For G42A C87G G124A, the “polymerase ribozyme fitness (log ratio)” value is at most -4.2.
Under C43A C57G G84A stands at most -4.2.
Regarding A41U C76U G88C U130C, the “polymerase ribozyme fitness (log ratio)” value is at most -4.2.
Under G42A U78A G81U C93U C99A C131U stands at most -4.2.
The result for C43A G86U reads at most -4.2.
With G42U C87A A98U C99U G141C, the “polymerase ribozyme fitness (log ratio)” value is at most -4.2.
With G42C C51U C103G, the “polymerase ribozyme fitness (log ratio)” value is at most -4.2.
Consider G42C U61G A91G G92U, for which the “polymerase ribozyme fitness (log ratio)” value was at most -4.2.
Under A41U C93A A122G stands -4.19; under A41U C85A A98G A122U G152U, at most -4.2; under G42U G83C C85A G124A U148G, at most -4.2.
The result for G42C G50A G65A G71C G81A U90C reads at most -4.2; that for G42C G48C C85A, at most -4.2; that for A41U A49C, -3.83.
On to C43A G58A C95U C105G A107G G136A A137U U151A, for which the “polymerase ribozyme fitness (log ratio)” value is at most -4.2.
Under G42A U44A C93U C105U C123U A137C stands at most -4.2; under G42C C105G, at most -4.2; under G42C U45A G48U A49C C75U C118G U144C, at most -4.2.
As to C43A A91U C95G A107G A137U G143A, the “polymerase ribozyme fitness (log ratio)” value was at most -4.2.
Under G42A A49U U55A U61G C85A stands at most -4.2; under C43A C76G G100C C149U A150G, at most -4.2; under A41U C43U A66C G74U G81C G84A G92A G136U, at most -4.2.
The result for G42A A52C C75U C85A G86C reads at most -4.2.
